# The other results are listed elsewhere or left out. Most values come without repeats; read them as rough.
# System: MZ2-MEL
# Assay: cell count relative to DMSO control; melanoma cells; higher = more viable cells
# Conditions: library dose: low library concentration; 72 h
# 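Further: cell number obtained by counting DAPI-stained nuclei in high-throughput microscope images with image analysis software, screen run in 1,536-well plates.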
row,SMILES,cell count [%]
1,"O=S(=O)(c1ccccc1)N(CC(F)(F)F)c1ccc(C(O)(C(F)(F)F)C(F)(F)F)cc1 + CC(C)CCN1c2nc(Nc3cc(F)c(O)c(F)c3)ncc2N(C)C(=O)C1C [BID1870] (first compound 1.4 µM, partner dose 0.2 µM)",97.3
2,"N#Cc1c(O)c2c(-c3ccc(-c4ccccc4O)cc3)csc2[nH]c1=O + Oc1nc(-c2ccc(C(F)(F)F)cc2)nc2c1CSCC2 [XAV939] (first compound 2 µM, partner dose 2 µM)",90.6
3,"N#Cc1c(O)c2c(-c3ccc(-c4ccccc4O)cc3)csc2[nH]c1=O + CCN(CC)CCCCNc1ncc2cc(-c3cc(OC)cc(OC)c3)c(NC(=O)NC(C)(C)C)nc2n1 [PD173074] (first compound 2 µM, partner dose 0.1 µM)",98.8
4,"COc1ccc2c(c1)CCC1C2CCC2(C)C(NCCCCCCN3C(=O)C=CC3=O)CCC12 (stereo not given) + O=C1NC(=O)/C(=C/c2ccc(-c3ccc(F)cc3O)o2)S1 [AS252424] (first compound 0.4 µM, partner dose 1 µM)",92.4
5,"COc1ccc(COc2ccc(Cc3cnc(N)nc3N)cc2OC)cc1 + Cn1cc(/C=C2\C(=O)Nc3cccnc32)c2ccccc21 [GW441756] (first compound 1 µM, partner dose 0.4 µM)",90.5
6,"Oc1cc(-c2nc(-c3ccccc3)[nH]c2-c2ccncc2)ccc1Cl + CCCCCCCCCCCC1=C(O)C(=O)C=C(O)C1=O [Embelin] (first compound 0.2 µM, partner dose 1.2 µM)",70.5
7,"O=C(O)C(=O)Nc1sc2c(c1C(=O)O)CCNC2 + Cn1cc(/C=C2\C(=O)Nc3cccnc32)c2ccccc21 [GW441756] (first compound 1.66667 µM, partner dose 0.4 µM)",89.8
8,"COC(=O)c1sccc1S(=O)(=O)Nc1ccc(Nc2ccccc2)cc1OC + COc1cc2ncnc(Nc3ccc(Oc4ccccc4)cc3)c2cc1OC [SrcI1] (first compound 1 µM, partner dose 2 µM)",84.8
9,"CCN(CC)CCCCNc1ncc2cc(-c3cc(OC)cc(OC)c3)c(NC(=O)NC(C)(C)C)nc2n1 + COc1ccc(COc2ccc(Cc3cnc(N)nc3N)cc2OC)cc1 [GW2580] (first compound 0.1 µM, partner dose 1 µM)",95.6
10,"c1cc(-c2cnn3cc(-c4ccc(OCCN5CCCCC5)cc4)cnc23)ccn1 [Dorsomorphin] + Cn1cc(/C=C2\C(=O)Nc3cccnc32)c2ccccc21 [GW441756] (first compound 0.4 µM, partner dose 0.4 µM)",85.2
11,"Cn1cc(/C=C2\C(=O)Nc3cccnc32)c2ccccc21 + CCCCCCCCCCCC1=C(O)C(=O)C=C(O)C1=O [Embelin] (first compound 0.4 µM, partner dose 1.2 µM)",94.1
12,"Oc1nc(-c2ccc(C(F)(F)F)cc2)nc2c1CSCC2 + Cn1cc(/C=C2\C(=O)Nc3cccnc32)c2ccccc21 [GW441756] (first compound 2 µM, partner dose 0.4 µM)",94.6
13,"COc1cc(N2CCC(N3CCN(C)CC3)CC2)ccc1Nc1ncc(Cl)c(Nc2ccccc2S(=O)(=O)C(C)C)n1 + Cn1cc(/C=C2\C(=O)Nc3cccnc32)c2ccccc21 [GW441756] (first compound 0.08 µM, partner dose 0.4 µM)",94.3
14,"N#Cc1c(O)c2c(-c3ccc(-c4ccccc4O)cc3)csc2[nH]c1=O + O=c1cc(-c2cccc3c2Sc2ccccc2S3)oc(N2CCOCC2)c1 [KU55933] (first compound 2 µM, partner dose 1 µM)",102
15,"COc1cc2ncnc(Nc3ccc(Oc4ccccc4)cc3)c2cc1OC + c1cc(-c2cnn3cc(-c4ccc(OCCN5CCCCC5)cc4)cnc23)ccn1 [Dorsomorphin] (first compound 2 µM, partner dose 0.4 µM)",81.6
16,"COC(=O)c1sccc1S(=O)(=O)Nc1ccc(Nc2ccccc2)cc1OC + Oc1nc(-c2ccc(C(F)(F)F)cc2)nc2c1CSCC2 [XAV939] (first compound 1 µM, partner dose 2 µM)",92.5
17,"O=C1NC(=O)/C(=C/c2ccc(-c3ccc(F)cc3O)o2)S1 + COc1cc(N2CCC(N3CCN(C)CC3)CC2)ccc1Nc1ncc(Cl)c(Nc2ccccc2S(=O)(=O)C(C)C)n1 [NVP-TAE684] (first compound 1 µM, partner dose 0.08 µM)",98.4
18,"O=C(O)C(=O)Nc1sc2c(c1C(=O)O)CCNC2 + O=C1NC(=O)/C(=C/c2ccc(-c3ccc(F)cc3O)o2)S1 [AS252424] (first compound 1.66667 µM, partner dose 1 µM)",97.3
19,"COc1ccc2c(c1)CCC1C2CCC2(C)C(NCCCCCCN3C(=O)C=CC3=O)CCC12 (stereo not given) + O=S(=O)(c1ccccc1)N(CC(F)(F)F)c1ccc(C(O)(C(F)(F)F)C(F)(F)F)cc1 [T0901317] (first compound 0.4 µM, partner dose 1.4 µM)",105
20,"Oc1nc(-c2ccc(C(F)(F)F)cc2)nc2c1CSCC2 + CC(C)CCN1c2nc(Nc3cc(F)c(O)c(F)c3)ncc2N(C)C(=O)C1C [BID1870] (first compound 2 µM, partner dose 0.2 µM)",95.7
21,"COc1cc(N2CCC(N3CCN(C)CC3)CC2)ccc1Nc1ncc(Cl)c(Nc2ccccc2S(=O)(=O)C(C)C)n1 + O=c1cc(-c2cccc3c2Sc2ccccc2S3)oc(N2CCOCC2)c1 [KU55933] (first compound 0.08 µM, partner dose 1 µM)",96
22,"N#Cc1c(O)c2c(-c3ccc(-c4ccccc4O)cc3)csc2[nH]c1=O + CCCCCCCCCCCC1=C(O)C(=O)C=C(O)C1=O [Embelin] (first compound 2 µM, partner dose 1.2 µM)",106
23,"c1cc(-c2cnn3cc(-c4ccc(OCCN5CCCCC5)cc4)cnc23)ccn1 [Dorsomorphin] + O=c1cc(-c2cccc3c2Sc2ccccc2S3)oc(N2CCOCC2)c1 [KU55933] (first compound 0.4 µM, partner dose 1 µM)",102
24,"COc1ccc(-c2ccc3c(N4CCOCC4)nc(N4C[C@@H](C)O[C@@H](C)C4)nc3n2)cc1CO + CCN(CC)CCCCNc1ncc2cc(-c3cc(OC)cc(OC)c3)c(NC(=O)NC(C)(C)C)nc2n1 [PD173074] (first compound 0.02 µM, partner dose 0.1 µM)",95.8
25,"N#Cc1c(O)c2c(-c3ccc(-c4ccccc4O)cc3)csc2[nH]c1=O + COc1ccc2c(c1)CCC1C2CCC2(C)C(NCCCCCCN3C(=O)C=CC3=O)CCC12 [U73122] (first compound 2 µM, partner dose 0.4 µM)",99.9

# Source: the supplement of paper PMC4604168 (melanoma cell lines)
